Paper PMC5702604
No constants are given. Whether binding was seen depends on the method and setting. Binding seen in cells or lysates may run through a third protein. Some entries that bind do so weakly or less than the wild type.

The chains behind the UniProt entries cited, without tags or fusion partners.
UniProt P16615: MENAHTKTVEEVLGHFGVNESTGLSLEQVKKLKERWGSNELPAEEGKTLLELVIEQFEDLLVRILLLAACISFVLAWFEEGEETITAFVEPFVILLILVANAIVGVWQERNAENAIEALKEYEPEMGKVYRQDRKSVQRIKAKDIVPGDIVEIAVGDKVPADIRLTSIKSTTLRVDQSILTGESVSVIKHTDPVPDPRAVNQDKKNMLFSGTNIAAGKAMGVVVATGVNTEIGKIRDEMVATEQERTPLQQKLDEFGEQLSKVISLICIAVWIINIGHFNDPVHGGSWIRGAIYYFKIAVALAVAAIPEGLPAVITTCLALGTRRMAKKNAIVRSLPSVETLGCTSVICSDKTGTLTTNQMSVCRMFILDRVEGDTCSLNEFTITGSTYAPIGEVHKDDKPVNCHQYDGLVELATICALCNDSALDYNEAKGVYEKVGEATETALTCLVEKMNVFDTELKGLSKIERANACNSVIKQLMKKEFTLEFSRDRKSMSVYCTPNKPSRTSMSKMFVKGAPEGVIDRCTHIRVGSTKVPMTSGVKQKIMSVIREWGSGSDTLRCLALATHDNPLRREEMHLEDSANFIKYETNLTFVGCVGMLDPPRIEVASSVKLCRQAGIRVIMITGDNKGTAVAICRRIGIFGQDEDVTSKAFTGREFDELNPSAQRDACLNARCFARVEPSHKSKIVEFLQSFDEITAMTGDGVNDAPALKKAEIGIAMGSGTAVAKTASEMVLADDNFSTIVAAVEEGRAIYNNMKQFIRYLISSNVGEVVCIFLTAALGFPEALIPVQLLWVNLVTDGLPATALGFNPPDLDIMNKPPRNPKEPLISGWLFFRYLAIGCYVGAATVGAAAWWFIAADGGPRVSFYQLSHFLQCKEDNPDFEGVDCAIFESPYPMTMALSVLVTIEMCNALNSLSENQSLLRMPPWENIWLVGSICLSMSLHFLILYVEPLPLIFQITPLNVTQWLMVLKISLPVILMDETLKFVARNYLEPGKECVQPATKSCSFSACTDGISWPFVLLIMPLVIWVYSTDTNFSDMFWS

Target: Flag-tagged SERCA2 (SERCA2b) (UniProt P16615)
Assay: pull-down; competition: synthetic peptide added at 200 μM to HEK293T lysates holding Piezo1-GST and Flag-SERCA2, overnight; read as Flag-SERCA2 pulled down by Piezo1-GST; only the binder purified

- binding: binds
B1: linker-peptide (amino acids 2171–2185 of mPiezo1), myristoylated (peptide)
peptide: TEKKYPQPKGQKKKK
modifications: myristoylated at its N-terminus
